Experimental data reported in paper PMC4336329 (PLoS ONE, 2015).
In all, about 310,000 compounds went through this assay and about 14,000 (4.5%) showed an effect of 50% or more. The effect is printed as a negative number. The list shows a part of the results.

Molecular target: human ether-à-go-go-related gene (hERG) potassium channel (human, UniProt Q12809)
Assay: primary screen, population patch clamp on CHO cells stably expressing hERG
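Further: peak tail current of the secondary pulse compared with the same well before compound.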

Sequence of human ether-à-go-go-related gene (hERG) potassium channel (Q12809 whole entry, looked up): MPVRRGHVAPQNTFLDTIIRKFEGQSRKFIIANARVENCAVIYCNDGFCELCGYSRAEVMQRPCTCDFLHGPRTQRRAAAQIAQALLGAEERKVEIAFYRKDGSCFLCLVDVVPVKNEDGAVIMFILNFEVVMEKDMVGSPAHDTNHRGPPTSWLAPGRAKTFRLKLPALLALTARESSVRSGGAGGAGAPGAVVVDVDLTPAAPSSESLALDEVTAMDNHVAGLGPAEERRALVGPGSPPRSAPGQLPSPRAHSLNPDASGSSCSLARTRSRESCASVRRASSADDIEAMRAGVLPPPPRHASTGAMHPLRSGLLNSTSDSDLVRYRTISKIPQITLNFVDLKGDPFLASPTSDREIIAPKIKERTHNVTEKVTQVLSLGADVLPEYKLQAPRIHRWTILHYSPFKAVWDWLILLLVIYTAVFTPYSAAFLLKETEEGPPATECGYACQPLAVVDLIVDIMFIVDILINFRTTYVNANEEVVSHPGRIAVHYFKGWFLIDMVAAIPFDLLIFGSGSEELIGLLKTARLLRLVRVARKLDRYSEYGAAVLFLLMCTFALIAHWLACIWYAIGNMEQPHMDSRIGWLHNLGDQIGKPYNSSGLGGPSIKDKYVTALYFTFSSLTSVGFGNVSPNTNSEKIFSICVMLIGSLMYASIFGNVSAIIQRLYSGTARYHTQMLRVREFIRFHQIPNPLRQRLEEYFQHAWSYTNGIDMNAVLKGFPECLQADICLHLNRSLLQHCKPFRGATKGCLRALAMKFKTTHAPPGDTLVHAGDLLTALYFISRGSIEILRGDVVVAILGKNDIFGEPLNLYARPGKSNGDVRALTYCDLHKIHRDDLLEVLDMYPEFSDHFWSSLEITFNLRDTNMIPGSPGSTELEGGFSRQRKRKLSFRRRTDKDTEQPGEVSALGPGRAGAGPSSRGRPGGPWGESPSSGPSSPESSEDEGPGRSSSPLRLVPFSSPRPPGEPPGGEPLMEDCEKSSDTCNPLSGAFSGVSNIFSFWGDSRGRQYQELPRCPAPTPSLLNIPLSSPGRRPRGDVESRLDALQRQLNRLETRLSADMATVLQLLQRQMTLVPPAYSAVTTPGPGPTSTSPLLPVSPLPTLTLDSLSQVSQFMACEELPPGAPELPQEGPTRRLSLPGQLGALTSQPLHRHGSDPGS

| Structure (SMILES) | hERG current change (%, negative = inhibition) at 10uM [%] |
| --- | --- |
| Cc1cc(NC(=O)CSc2nnc(Nc3ccccc3F)s2)no1 | 18.6 |
| CCCCNC(=O)CCSc1nc2nc(C)cc(C)n2n1 | 10.1 |
| O=C(Nc1cnccn1)c1csc2ccccc12 | 12.2 |
| Cc1ccc(C2C(=O)N(C3CCCC3)CC(=O)N2C2CCCCC2)cc1 (stereo not drawn) | -25.4 |
| COc1c(C)cc(C(=O)C2CCCN(C(=O)CCCn3cncn3)C2)cc1C (stereo not drawn) | -0.109 |
| O=C(CN1CCN(Cc2ccc(Cl)cc2)CC1)N/N=C/c1cccs1 | -67.2 |
| Cc1cnc(C(=O)NC2CCSc3ccccc32)cn1 (stereo not drawn) | 11 |
| CCOc1ccc(NC(=O)CC2Nc3ccccc3NC2=O)cc1 (stereo not drawn) | 11.4 |
| CCC(C(=O)N1CCC2(CC1)OCCO2)c1ccccc1 (stereo not drawn) | -7.86 |
| CCN(CC)c1nc(N)c([N+](=O)[O-])c(NCCO)n1 | 12.1 |
| Cc1c(CCO)c(=O)[nH]n1C(=O)c1ccc(F)cc1 | 29.9 |
| Cc1nn(C)c(Cl)c1CN1CCCC(C(=O)Nc2ccc(-c3cscn3)cc2)C1 (stereo not drawn) | -7.54 |
| Cc1sc2ncnc(N=Nc3c(O)[nH]c4ccccc34)c2c1C | 17.5 |
| CC(C)(C)NC(=O)COC(=O)c1ccccc1OCC(=O)Nc1ccc(Br)cc1 | 11.4 |
| Cc1cnc(C(=O)Nc2ccc(OC(F)(F)F)cc2)cn1 | -9.93 |
| Cc1cc(C(C)(C)C)oc1C(=O)N(CC(=O)NC1CCCC1)c1c(C)cccc1C | -4.68 |
| Cc1cccc(NC(=O)CCS(=O)(=O)c2ccccc2)c1 | 10.4 |
| Cc1ccc(C)c(NC2=NC3(CCCCC3)N=C(N)N2)c1 | 3.52 |
| CSc1ccccc1C(=O)NCCSC(C)(C)C | 6.86 |
| CCCN(CCC)CCCNC(=O)CC(C(=O)N1CCc2ccccc21)n1ccnc1 (stereo not drawn) | -0.225 |
| c1ccc(C2[C@H]3CN(Cc4cccnc4)[C@H](c4ccccc4)C34CC2(c2cccnc2)C4)cc1 (stereo partly drawn) | -5.03 |
| Cc1ccc(Sc2ncccc2C(=O)NCC(c2ccc(F)cc2)N2CCOCC2)cc1C (stereo not drawn) | -29.4 |
| O=C(Cc1noc2ccccc12)NNC(=S)Nc1ccccc1 | 20.1 |

| Structure (SMILES) | hERG current change (%, negative = inhibition) at 10uM [%] |
| --- | --- |
| O=C(c1ccco1)N1C(=O)c2cccc3c(S(=O)(=O)N4CCCC4)ccc1c23 | 5.4 |
| CCC(=O)Nc1c(S(=O)(=O)c2ccccc2)c2nc3ccccc3nc2n1Cc1ccccc1 | -0.531 |
| CC(=O)c1c(C)[nH]c(C(=O)N(C)CC(=O)Nc2ccc(Cl)c(C(F)(F)F)c2)c1C | -7.97 |
| COc1ccc(/C=C2\Oc3cc(OCC(N)=O)ccc3C2=O)cc1OC | -0.36 |
| CSc1c(-c2ccccc2)nc2ccccc2c1C(=O)O | 27 |
| COC(=O)/C(N=Nc1c(C)n(C)n(-c2ccccc2)c1=O)=C(\C)O | 9.02 |
| O=C(NNc1c([N+](=O)[O-])cc(C(F)(F)F)cc1[N+](=O)[O-])c1ccco1 | 21.8 |
| COCCCNC(=S)Nc1ccc(N2CCCCC2)cc1 | 3.5 |
| NS(=O)(=O)c1ccc(NC(=S)NC2CCCC2)cc1 | 7.37 |
| O=C(Nc1ccc(Cl)cc1C(F)(F)F)C(Sc1nnc(-c2cccs2)o1)c1ccccc1 (stereo not drawn) | 5.82 |
| CC1CC(=O)N(C)c2cc([N+](=O)[O-])ccc2N1 (stereo not drawn) | 1.18 |
| Cc1ccc(N(CC(O)CN2CCCC2)S(=O)(=O)c2ccccc2)cc1 (stereo not drawn) | -68.2 |
| Cc1ccc(NC(=O)CN(C)CC(=O)N(CC(C)C)c2c(N)n(CC(C)C)c(=O)[nH]c2=O)c(C)c1 | 6.94 |
| Cc1csc2ncc(C(=O)Nc3ccccc3F)c(=O)n12 | -2.87 |
| Cc1[nH]n(C(N)=S)c(=O)c1N=Nc1ccc(Br)cc1 | 30.3 |
| COc1cccc(C(C(=O)NC2CCCCC2)N(C(=O)c2ccco2)c2ccc(-n3cnnn3)c(C)c2)c1 (stereo not drawn) | -32.7 |
| CCN(CC)CCCNC(=S)N(CCO)Cc1cc2cc3c(cc2[nH]c1=O)OCO3 | 8.27 |
| COc1cccc(N2CCN(C(=O)CN3C(=O)NC4(CCCC4)C3=O)CC2)c1 | 7.99 |
| CCCCCCCCOC(=O)CCn1[nH]c(=O)c2ccccc2c1=O | -3.56 |
| O=C(/C=C/c1c(F)cccc1Cl)NCCCN1CCOCC1 | -12.3 |
| COCc1cc(C)n(CC(=O)OC)c(=O)c1C#N | 11.9 |
| Cc1ccccc1CC1(CO)CCCN(C(=O)CCC(F)(F)F)C1 (stereo not drawn) | 11.9 |
| O=C(Oc1ccccc1)c1cccc2cccnc12 | -8.65 |

| Structure (SMILES) | hERG current change (%, negative = inhibition) at 10uM [%] |
| --- | --- |
| Cc1c(-n2cc(C(=O)O)c(=O)c3cc(F)c(N4CCCC4)c(F)c32)c(=O)n(-c2ccccc2)n1C | 20.7 |
| CCc1ccc(Oc2cc(Cl)nc(N)n2)cc1 | 3.44 |
| CC(=O)Nc1ccccc1NC(=O)C(F)(F)F | 19.6 |
| NC(=S)N/N=C/c1coc2ccccc2c1=O | 23.3 |
| Cc1cc(N2CCN(S(=O)(=O)c3ccccc3)CC2)nc2c(C)cccc12 | 23.1 |
| CCN(CC)S(=O)(=O)c1cccc(C(=O)Nc2nnc(C)s2)c1 | 3.2 |
| O=C(COC(=O)c1ccc(NS(=O)(=O)c2cccs2)cc1O)Nc1nc2ccccc2s1 | 1.34 |
| Cc1cc(C(=O)N/N=C2\CCCc3ccccc32)c(C)o1 | 3.1 |
| COc1cnc(N(C)C)nc1Sc1ccc(Cl)cc1 | 11.2 |
| CN(C)S(=O)(=O)c1ccc(C(=O)Nc2ccccc2[N+](=O)[O-])cc1 | -0.189 |
| Cc1noc(C)c1COC(=O)c1cccc(N(C)C)c1 | 17 |
| CN(CC(=O)Nc1cccc(F)c1)C(=O)CCCn1c(=O)oc2ccccc21 | -48.4 |
| Cc1ccc(C)c(S(=O)(=O)Nc2cccc(-n3cnnn3)c2)c1 | -6.68 |
| O=C(N/N=C/c1cc2ccccc2[nH]1)c1ccccc1Cl | -1.92 |
| Cc1cc(C)nc(-n2nc(C)c(C3(O)C(=O)Nc4ccc(F)cc43)c2N)n1 (stereo not drawn) | 3.79 |
| CC(C)C(NC(=O)c1ccccc1)C(=O)NC1=NCCS1 (stereo not drawn) | 10.9 |
| COc1cccc(-c2[nH]nc3c2C(c2ccsc2)C(C#N)=C(N)O3)c1 (stereo not drawn) | -4.18 |
| CCCn1nc2cc(C(=O)NCCCCc3ccccc3)ccc2c1OCC | -23.9 |
| COC(=O)CCCNC(=O)OCc1ccc([N+](=O)[O-])cc1 | -10.9 |
| COc1ccc(/C=C/C(=O)NC(=S)NNC(=O)c2cnccn2)cc1 | 14.5 |
| O=C(CSc1n[nH]c(=O)n1C1CC1)c1ccc2c(c1)OCCO2 | 4.77 |
| CC(C)OC(=O)CCC1(C(=O)O)CCC(=O)NC1 (stereo not drawn) | 7.55 |
| Cc1c(Br)cc(C(=O)N2CCN(CCO)CC2)c(C)c1C | 9.99 |

| Structure (SMILES) | hERG current change (%, negative = inhibition) at 10uM [%] |
| --- | --- |
| Cc1ccc(NC(=S)NC(NC(=O)c2ccccc2)C(Cl)(Cl)Cl)c(C)c1 (stereo not drawn) | 0.203 |
| COc1ccc(CC(=O)OC2CCCN(C)C2)cc1.Cl (stereo not drawn) | 19.3 |
| O=C(CNc1ccccc1-c1ccccc1)NCc1ccccc1 | -21.7 |
| CSc1ccccc1NC(=O)COc1ccc(Cl)cc1 | -17.5 |
| O=C(Cn1cnc2c(nnn2-c2cccc(Cl)c2)c1=O)N1CCCC1 | -8.36 |
| Cc1cccc(N2CCN(C(=O)COc3ccc4c(c3)CCC4)CC2C)c1 (stereo not drawn) | -1.36 |
| COCCN(C(=O)COC(=O)Cc1cccc(OC)c1)c1c(N)n(CC(C)C)c(=O)[nH]c1=O | 2.09 |
| CCCCCC(=O)N1CC2(C)CN(C(=O)CCCCC)CC(C)(C1)C2=O | -30.1 |
| CC(C)(C)C(=O)NC(=S)Nc1cc(C(=O)O)ccc1Cl | 4.5 |
| COc1ccccc1C(=O)COC(=O)c1ccc(N(C)C)cc1 | 34.9 |
| CCCCn1c(N)c(N(CC(C)C)C(=O)c2c(CC)noc2C)c(=O)[nH]c1=O | 7.09 |
| CCN1CCc2c(C#N)c(N3CCOCC3)nc(N3CCOCC3)c2C1 | 5.21 |
| COC(=O)c1cccc(C(=O)N2CCCC(C(=O)c3cccc(OC(C)C)c3)C2)c1 (stereo not drawn) | 8.88 |
| CC(C)CCNC(=O)C1CC(c2ccccc2[N+](=O)[O-])=NO1 (stereo not drawn) | -4.33 |
| O=C(CSc1nnnn1C1CCCC1)N1CCCc2ccccc21 | -12.8 |
| O=C(Nc1ccccc1)c1ccc(OC(=O)c2cc3ccccc3o2)cc1 | 13.4 |
| CCOC(=O)C1=C(C)N=C2c3ccccc3C(=O)C2C1c1ccc(Br)cc1 (stereo not drawn) | 2.22 |
| CS(=O)(=O)N1CCC(C(=O)Nc2cc(Cl)c(Cl)cc2Cl)CC1 | 19.7 |
| Cc1cc(-c2ccccc2)nn1-c1nc2c(c(=O)[nH]c(=O)n2C)n1C | -2.99 |
| Cc1ccc(OCC(=O)Nc2ccc(N3CCOCC3)cc2)c([N+](=O)[O-])n1 | 13.1 |
| O=C(CCCNS(=O)(=O)c1ccc(Br)cc1)N1CC[C@@]2(O)CCCC[C@H]2C1 | -24.7 |
